Data on 1 molecule can be found in patent US20090010942A1, “NOVEL PRIMATE CHITINASES AND USES THEREFOR” (WYETH, priority 2007, published 2009).

A short description of the assay: chitinase enzyme assay in conditioned media of transfected COS cells. It is filed as biochemical. The method, then: Enzymatic activity assays were performed using cloned mNC, engineered hNC (stop codon substituted to allow for translation of full protein), engineered mut-hNC (truncated), and cloned hAMCase in COS cells. The full length mNC construct was expressed and the chitinase activity of the resultant gene products was measured.
Cultured conditions were as follows: COS cells were cultured in DME media and were transfected at 90% confluency using TransIT®-LT1 transfection reagent (MIRUS). 24 hours post transfection, cell culture media was replaced with serum-free R1CD1 media. Conditioned media, containing secreted enzyme, was collected 48 hours later. Chitinase enzyme assays were performed directly from these samples, as follows.

B1: hNC: engineered human novel chitinase based on a human pseudogene, SEQ ID NO:4 (protein, listed as Homo sapiens)
chain: MAKLTLLTGLLLVLTAEIGSAYQLTCYFTNWAQNQPGLGCFKPDDIDPCLCTHLIYAFAGMQNNEITTIEWDDMTLYQAFNGLKNKNSQLKTLLAIGGWNFGTAPFTAMVSTPENHQTFINSVIKFLRQYEFDGLDFDWEYPGSRVSPPQDKHLFTVLVQEMREAFEQEAKHINKPRLMVTAAVAAGISNIQSGYEIPQLSQYPDYIHVMTYDLHGSWEGYTGENSPLYKYPTDTGSNAYLNVDYVMNYWKDNRAPAEKLLVGFPAYGHSFLLSNPSNHGIDAPTTGPGPAGPYTRQSGFWAYYEICTFLKNGATEVWEASEDVPYAYKGNEWLGYDNTKSFQIKADWLKKNNFGGAMVWAIDLDDFTGTFCNQGKFPLITTLKDALGLQSTSCKAPAQPIAPIAEANITCGVSHSGSSGGRSGRSSGGSPRGSGFCADRASGLYPDPTDKNASYSCVNGKTFTQHCQPGGVFDTFCSCCSW
In the case of B1, the “enzymatic (chitinase) activity” value is given as “no significant enzymatic activity was detected”.
